In this experiment the target is T1, mouse CXCR3 (mCXCR3) on Ba/F3 transfectant cells (mouse, UniProt O88410 1-367).
T1 sequence (looked up): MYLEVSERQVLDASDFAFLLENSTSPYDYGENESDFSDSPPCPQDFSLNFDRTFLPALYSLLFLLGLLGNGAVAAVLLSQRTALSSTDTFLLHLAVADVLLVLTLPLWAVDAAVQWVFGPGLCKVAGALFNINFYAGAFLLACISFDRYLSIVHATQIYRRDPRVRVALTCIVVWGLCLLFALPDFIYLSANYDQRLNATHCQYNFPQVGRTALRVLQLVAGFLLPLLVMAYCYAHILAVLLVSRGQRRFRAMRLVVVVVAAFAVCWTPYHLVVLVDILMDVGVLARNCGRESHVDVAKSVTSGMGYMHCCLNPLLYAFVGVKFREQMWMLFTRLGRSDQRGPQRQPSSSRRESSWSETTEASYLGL
As to the kind of experiment: cell-based or functional assay.

B1: hCXCL10R75A (ligand)
chain: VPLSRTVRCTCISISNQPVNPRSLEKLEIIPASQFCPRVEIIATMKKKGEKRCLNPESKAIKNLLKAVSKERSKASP
As for B1, the “Luminescence value at 1 nM, DPPIV -” value came to 384000; the “Luminescence value at 2 nM, DPPIV -” value came to 909000; the “Luminescence value at 5 nM, DPPIV -” value was found to be 2.36e+06; the “Luminescence value at 9 nM, DPPIV -” value came to 3.93e+06. In addition, the “Luminescence value at 19 nM, DPPIV -” value stood at 5.87e+06; the “Luminescence value at 38 nM, DPPIV -” value was 1.01e+07; the “Luminescence value at 75 nM, DPPIV -” value was found to be 1.33e+07; the “Luminescence value at 150 nM, DPPIV -” value worked out at 9.68e+06. For the same molecule, the “Luminescence value at 300 nM, DPPIV -” value is 3.83e+06 and the “Luminescence value at 600 nM, DPPIV -” value turned out to be 1.13e+06.

B2: DPPIV-treated hCXCL10R75A (ligand)
chain: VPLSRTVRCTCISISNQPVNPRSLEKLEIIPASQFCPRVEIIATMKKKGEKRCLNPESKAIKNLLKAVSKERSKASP
B2: the “Luminescence value at 1 nM, DPPIV +” value turned out to be 78200; the “Luminescence value at 2 nM, DPPIV +” value worked out at 73800; the “Luminescence value at 5 nM, DPPIV +” value was 74800; the “Luminescence value at 9 nM, DPPIV +” value stood at 84000. In addition, the “Luminescence value at 19 nM, DPPIV +” value was 82800; the “Luminescence value at 38 nM, DPPIV +” value turned out to be 107000; the “Luminescence value at 75 nM, DPPIV +” value was 410000; the “Luminescence value at 150 nM, DPPIV +” value was determined as 1.7e+06. The “Luminescence value at 300 nM, DPPIV +” value was 3.72e+06 and the “Luminescence value at 600 nM, DPPIV +” value worked out at 5.45e+06.

Values taken from US20260217779A1 (Chugai, published 2026).
